Test results published in PMC4336329 (PLoS ONE, 2015).
Screen size: about 310,000 compounds; about 14,000 (4.5%) showed an effect of 50% or more. Effects have a minus sign here. Some of the results follow.

target: human ether-à-go-go-related gene (hERG) potassium channel (human, UniProt Q12809); assay: primary screen, population patch clamp on CHO cells stably expressing hERG
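Also: peak tail current of the secondary pulse compared with the same well before compound.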

Sequence of human ether-à-go-go-related gene (hERG) potassium channel (Q12809 whole entry, looked up): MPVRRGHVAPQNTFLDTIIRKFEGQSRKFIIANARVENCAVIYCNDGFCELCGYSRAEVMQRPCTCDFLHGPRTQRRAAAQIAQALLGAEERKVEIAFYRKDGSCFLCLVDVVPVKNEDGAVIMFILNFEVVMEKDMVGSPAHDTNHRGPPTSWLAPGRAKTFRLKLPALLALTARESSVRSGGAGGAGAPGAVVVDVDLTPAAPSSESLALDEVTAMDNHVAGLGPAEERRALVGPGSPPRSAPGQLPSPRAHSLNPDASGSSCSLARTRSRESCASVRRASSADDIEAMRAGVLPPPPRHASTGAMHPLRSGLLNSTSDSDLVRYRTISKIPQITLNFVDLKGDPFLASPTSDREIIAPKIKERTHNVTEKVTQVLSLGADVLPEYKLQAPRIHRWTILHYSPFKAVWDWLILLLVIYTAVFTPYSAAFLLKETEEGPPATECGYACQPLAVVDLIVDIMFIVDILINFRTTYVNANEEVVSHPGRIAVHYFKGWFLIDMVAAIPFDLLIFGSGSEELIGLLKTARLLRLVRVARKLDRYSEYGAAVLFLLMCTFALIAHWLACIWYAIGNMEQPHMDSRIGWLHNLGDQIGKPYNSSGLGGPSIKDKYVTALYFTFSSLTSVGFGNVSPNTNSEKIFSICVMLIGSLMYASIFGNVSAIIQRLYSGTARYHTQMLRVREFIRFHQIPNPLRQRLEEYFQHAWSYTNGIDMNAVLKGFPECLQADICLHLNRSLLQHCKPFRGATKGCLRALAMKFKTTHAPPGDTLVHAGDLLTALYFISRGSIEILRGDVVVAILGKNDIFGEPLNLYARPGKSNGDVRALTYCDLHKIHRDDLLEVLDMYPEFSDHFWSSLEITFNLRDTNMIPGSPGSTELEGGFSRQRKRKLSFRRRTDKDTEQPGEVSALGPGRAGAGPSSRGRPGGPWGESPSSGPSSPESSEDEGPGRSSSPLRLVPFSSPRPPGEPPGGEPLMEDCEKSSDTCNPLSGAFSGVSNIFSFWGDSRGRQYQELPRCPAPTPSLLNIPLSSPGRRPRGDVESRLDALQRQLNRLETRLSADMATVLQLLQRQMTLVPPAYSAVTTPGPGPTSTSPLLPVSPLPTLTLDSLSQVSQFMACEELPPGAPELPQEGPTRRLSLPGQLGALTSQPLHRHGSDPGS

SMILES	hERG current change (%, negative = inhibition) at 10uM [%]
COC(=O)c1ccc(/C=C(/NC(=O)c2ccccc2)C(=O)N2CCOCC2)cc1	-9.15
Cc1ccc(NC(=O)COC(=O)C2C3CC4OC(=O)C2C4C3)cc1 (stereo not shown)	-0.408
COc1ccc(NC(=O)c2sc3nc(-c4cccnc4)ccc3c2N)cc1OC	-22.3
OCCOc1cccc(CN2CCC(CO)(CCOc3ccccc3)CC2)c1	-51.3
COCCCNC(=O)c1ccc(Cn2c(=O)c3ccccc3n(Cc3ccccc3C#N)c2=O)cc1	-7.35
Cc1ccc(C(=O)NNC2CC(=O)N(c3ccc4c(c3)OCCO4)C2=O)cc1 (stereo not shown)	1.14
O=C(CCn1cnnn1)N1CCCC(Nc2ccc(F)cc2)C1 (stereo not shown)	3.2
CN(C)c1ccc(C2SCCN2C(=O)c2ccc([N+](=O)[O-])cc2)cc1 (stereo not shown)	-66.7
Cc1ccccc1N1CCN(Cc2cc3c(cc2[N+](=O)[O-])OCO3)CC1	8.1
CCOC(=O)Cn1c(=O)c(-c2cc(Br)ccc2N)nc2ccccc21	7.52
Cn1c(Cn2c(=O)sc3ccccc32)nnc1SCc1ccccc1	-10.1
CC1(c2cccc(Br)c2)NC(=O)N(CC(=O)N2CCc3ccccc32)C1=O (stereo not shown)	-9.1
COc1ccc(S(=O)(=O)N2CCC3(CC2)CC(=O)c2ccccc2O3)cc1C	-3.6
O=C(NCC1CCCO1)c1ccc(OC2CCN(C(=O)C3CC3)CC2)cc1 (stereo not shown)	12.7
CCOCc1nc(C)c(Cl)c(NS(=O)(=O)c2ccc(N)cc2)n1	13.9
COc1ccc(CCCc2nnc(SCC(=O)Nc3cc(C)c(C)cc3Br)o2)cc1	-9.94
Cl.c1ccc(CN2CCN(c3nc(NCc4ccco4)c4ccccc4n3)CC2)cc1	-68.3
COCCCNC(=O)C1CCC(CNS(=O)(=O)c2ccc(Cl)cc2)CC1 (stereo not shown)	14.4
COc1ccc(C(=O)Nc2ccc(Cl)c(S(=O)(=O)Nc3ccccc3OC)c2)cc1	-14.2
COc1ccc2c(c1)O/C(=C\c1ccccc1O)C2=O	27.3
O=C(Nc1ccccn1)C1CCN(S(=O)(=O)c2ccc(Cl)cc2)CC1	-7.33
Cl.OC1(CN2CCOCC2)C2CC3CC(C2)CC1C3 (stereo not shown)	11

SMILES	hERG current change (%, negative = inhibition) at 10uM [%]
CS(=O)(=O)N1CCc2cc(NC(=O)c3ccc(Cl)cc3Cl)ccc21	1.5
CN(CC(=O)Nc1cccc(F)c1)C(=O)c1ccccc1OCCOc1ccccc1	-30.9
COc1ccc(C(=O)OCn2nnc3ccccc3c2=O)cc1[N+](=O)[O-]	13.6
CCCCOc1ccc(NC2=NC3(CCCC3)N=C(N)N2)cc1	21.3
Oc1ccc(N=Cc2c(O)ccc3ccccc23)cc1	13.9
CCCCNC(=S)NC(=O)c1ccc(Cl)cc1Cl	22.7
N#Cc1nc(-c2cccs2)oc1NCC1CCCO1 (stereo not shown)	-10
COc1cc(OC)c(C2=NOC(C(=O)Nc3c(C)n(C)n(-c4ccccc4)c3=O)C2)cc1Cl (stereo not shown)	12.8
CSc1ccc(S(=O)(=O)Nc2ccc(N3CCOCC3)c(Cl)c2)cc1	-7.48
CSc1ccc(CCNC(=O)CN2C(=O)c3cccnc3Oc3ccc(C)cc32)cc1	-39.6
O=C(NC(=S)Nc1cccc([N+](=O)[O-])c1)c1ccccc1	13.4
COc1cc(S(=O)(=O)Nc2ncccc2C)c(OC)cc1Cl	2.23
O=C(NCCc1ccc(Cl)cc1)c1ccc(NC2=NC3CS(=O)(=O)CC3S2)cc1 (stereo not shown)	23.8
COc1cccc(N2CCN(S(=O)(=O)c3ccc4c(c3)N(C(C)=O)CCO4)CC2)c1	-45.1
O/N=C1\CCCc2ccc(Cl)cc21	-11.2
Nc1nonc1-c1noc(CCCOc2ccc(Cl)cc2Cl)n1	-12.3
COc1cc(C=C2C(=O)OC(C)(C)OC2=O)ccc1OCC(=O)Nc1ccccc1	17.9
CCN(CC)CCN1C(=O)C(=O)/C(=C(/O)c2ccc(OC)c(OC)c2)C1c1ccccn1 (stereo not shown)	13.6
O=C(Nc1ncccn1)c1ccc(Cl)c([N+](=O)[O-])c1	14.1
O=C(COC(=O)Cc1ccc(Br)cc1)NC1CCCCCC1	-1.07
O=C1NC(c2ccccc2)=N/C1=C/c1ccco1	-8.66
